Laboratory results as given in patent US20140377340A1, “HLA-DR BINDING PEPTIDES AND THEIR USES” (priority 2007, published 2014).
For some assays here: Part of at least one peptide drawing is inferred or uncertain, most often the ends. For some assays here: For at least one compound, name, drawing or mass did not settle the structure. Ends that are not written are not given here.

Assays:
purified HLA DRB1*0404 = target: T1, purified HLA DRB1*0404 (Homo sapiens, UniProt P01903+P01911, A100R/A169T/F76Y/I96L/K127E/L162R/M171V/N62H/P40V/Q125Y/R42H/S133A/S149N/S66Y/V209L/W38E); assay: HLA-DR radioligand binding inhibition assay, DRB1*0404; settings: read-out: IC50 nM purified HLA DRB1 *0404
T1 construct: purified from EBV transformed homozygous cell lines or single MHC allele transfected 721.221, C1R, or fibroblast lines; made in house
Experimental: (§1) Instead, wells of an opaque white 96-well Optiplate (Packard) are coated with 3 μg (100 μl@ 30 μg/ml) of HLA-specific antibody (Ab) that “capture” complexes of radiolabeled MHC and unlabeled peptide transferred from the molecular binding assay plate in 100 μl of 0.05% NP40/PBS. After a 3-hour incubation period, the supernatant is decanted and scintillation fluid (Microscint 20) added. Captured complexes are then measured on a microplate scintillation and luminescence counter (TopCount NXTTM; Packard).
(§2) HLA-DR purification. Fifteen distinct HLA-DR molecules were used in quantitative assays to measure the binding of peptides to solubilized HLA-DR molecules. […] Briefly, columns of inactivated Sepharose CL4B and Protein A Sepharose were used as pre-columns. HLA-DR molecules were captured by passage of lysates over LB3.1 monoclonal antibody (anti-HLA-DRA) columns. Antibody columns were washed with 10 mM Tris-HCL, pH8.0 with 1% (v/v) NP-40, followed by PBS containing 0.4% (w/v) n-octylglucoside.
(§3) Briefly, 1-10 nM of radiolabeled peptide was co-incubated for 2 days at either room temperature or 37° C. with 1 μM to 1 nM purified HLA-DR molecules in the presence of a cocktail of protease inhibitors. Assays were performed at various pH conditions, ranging from pH 4 to pH 7. […] After incubation, the percentage of HLA-DR-bound radioactivity is determined by capturing HLA-DR/peptide complexes on Optiplates (Packard Instruments, Meriden, Conn.) coated with the LB3.1 antibody and determining bound counts per minute using the TopCount microscintillation counter (Packard Instruments).

purified HLA DRB1*0701 = target: T2, purified HLA DRB1*0701 (Homo sapiens, UniProt P01903+P01911, A100R/A102G/A103Q/D57E/D86V/E43K/F76Y/K127E/L162R/M171V/P40G/Q125H/Q99D/R33Q/R42Y/R54Q/S133A/S66F/T210M/V115G/Y107V/Y59L/Y89S); assay: HLA-DR radioligand binding inhibition assay, DRB1*0701; settings: read-out: IC50 nM purified HLA DRB1 *0701
T2 construct: purified from EBV transformed homozygous cell lines or single MHC allele transfected 721.221, C1R, or fibroblast lines; made in house
Experimental: as §1, §2, §3

purified HLA DRB1*1302 = target: T3, purified HLA DRB1*1302 (Homo sapiens, UniProt P01903+P01911, A100E/A169T/K41T/L162R/M171V/P40S/Q125H/Q178H/Q39Y/Q99D/R42S/S66N/T262R/V115G/W38E/Y61H); assay: HLA-DR radioligand binding inhibition assay, DRB1*1302
T3 construct: purified from EBV transformed homozygous cell lines or single MHC allele transfected 721.221, C1R, or fibroblast lines; made in house
Experimental: as §1, §2, §3

purified HLA DRB1*1501 = target: T4, purified HLA DRB1*1501 (Homo sapiens, UniProt P01903+P01911); assay: HLA-DR radioligand binding inhibition assay, DRB1*1501
T4 construct: purified from EBV transformed homozygous cell lines or single MHC allele transfected 721.221, C1R, or fibroblast lines; made in house
Experimental: as §1, §2, §3

purified HLA DRB4*0101 = target: T5, purified HLA DRB4*0101 (Homo sapiens, UniProt P01903+P13762, G164S); assay: HLA-DR radioligand binding inhibition assay, DRB4*0101; settings: read-out: IC50 nM purified HLA DRB4 *0101
T5 construct: purified from EBV transformed homozygous cell lines or single MHC allele transfected 721.221, C1R, or fibroblast lines; made in house
Experimental: as §1, §2, §3

purified HLA DRB1*0301 = target: T6, purified HLA DRB1*0301 (Homo sapiens, UniProt P01903+P01911, A100K/A102G/A103R/A169T/F55Y/I96L/K41T/L162R/M171V/P40S/Q125H/Q178H/Q39Y/R42S/S66N/T106N/T262R/W38E/Y61H); assay: HLA-DR radioligand binding inhibition assay, DRB1*0301; settings: read-out: IC50 nM purified HLA DRB1 *0301
T6 construct: purified from EBV transformed homozygous cell lines or single MHC allele transfected 721.221, C1R, or fibroblast lines; made in house
Experimental: as §1, §2, §3

purified HLA DRB1*0101 = target: T7, purified HLA DRB1*0101 (Homo sapiens, UniProt P01903+P01911, A100R/D57E/F55L/F60I/F76Y/I96L/L162R/M171V/P40L/Q125E/R42F/V115G/Y59C); assay: HLA-DR radioligand binding inhibition assay, DRB1*0101; settings: read-out: IC50 nM purified HLA DRB1 *0101
T7 construct: purified from EBV transformed homozygous cell lines or single MHC allele transfected 721.221, C1R, or fibroblast lines; made in house
Experimental: as §1, §2, §3

purified HLA DRB1*0401 = target: T8, purified HLA DRB1*0401 (Homo sapiens, UniProt P01903+P01911, A100K/A169T/F76Y/I96L/K127E/L162R/M171V/N62H/P40V/Q125Y/R42H/S133A/S149N/S66Y/V115G/V209L/W38E); assay: HLA-DR radioligand binding inhibition assay, DRB1*0401; settings: read-out: IC50 nM purified HLA DRB1 *0401
T8 construct: purified from EBV transformed homozygous cell lines or single MHC allele transfected 721.221, C1R, or fibroblast lines; made in house
Experimental: as §1
as §2, with “Antibody columns were washed with 10 mM Tris-HCL, pH8.0 with 1% (v/v) NP-40, followed by PBS containing 0.4% (w/v) n-octylglucoside.” left out
as §3, with “inhibitors.” for “inhibitors. Assays were performed at various pH conditions, ranging from pH 4 to pH 7.”

Compound	IC50 (purified HLA DRB1*0404)	IC50 (purified HLA DRB1*0701)	IC50 (purified HLA DRB1*1302)	IC50 (purified HLA DRB1*1501)	IC50 (purified HLA DRB4*0101)	IC50 (purified HLA DRB1*0301)	IC50 (purified HLA DRB1*0101)	IC50 (purified HLA DRB1*0401)
CC[C@H](C)[C@H](NC(=O)[C@H](CCCCN)NC(=O)[C@H](CCC(N)=O)NC(=O)[C@@H](N)CCC(N)=O)C(=O)N[C@@H](CCCNC(=N)N)C(=O)N[C@@H](CCCCN)C(=O)N[C@@H](Cc1ccc(O)cc1)C(=O)N[C@H](C(=O)N[C@@H](CCSC)C(=O)N[C@@H](CCCNC(=N)N)C(=O)N[C@@H](CCCNC(=N)N)C(=O)N[C@@H](CC(C)C)C(=O)N[C@@H](CC(C)C)C(=O)N[C@@H](CCC(N)=O)C(=O)N[C@@H](CCC(=O)O)C(=O)O)[C@@H](C)O [Peptide 9019.0070]	5400 nM	44 nM	44 nM	2 nM	93 nM	–	–	–
CC[C@H](C)[C@H](NC(=O)[C@@H](NC(=O)[C@H](Cc1c[nH]cn1)NC(=O)[C@H](CC(C)C)NC(=O)[C@@H](NC(=O)[C@H](CC(C)C)NC(=O)[C@@H](N)Cc1ccccc1)[C@@H](C)O)C(C)C)C(=O)N[C@@H](CCCCN)C(=O)N[C@@H](CO)C(=O)N[C@@H](CC(=O)O)C(=O)N[C@@H](CC(C)C)C(=O)N[C@H](C(=O)N[C@@H](CC(N)=O)C(=O)N[C@@H](CCC(=O)O)C(=O)N[C@@H](CCC(=O)O)C(=O)O)C(C)C [Peptide 9019.0114]	169 nM	56 nM	–	–	–	80 nM	–	–
CC[C@H](C)[C@H](NC(=O)[C@H](CO)NC(=O)[C@H](CC(N)=O)NC(=O)[C@@H](N)CC(=O)O)C(=O)N[C@@H](CCCNC(=N)N)C(=O)N1CCC[C@H]1C(=O)N[C@@H](CCC(=O)O)C(=O)N[C@@H](CCC(=O)O)C(=O)N[C@@H](CC(C)C)C(=O)N[C@@H](CC(C)C)C(=O)N[C@@H](CCC(N)=O)C(=O)N[C@@H](CCSC)C(=O)N[C@@H](CCC(=O)O)C(=O)N[C@@H](CC(C)C)C(=O)N[C@@H](CC(C)C)C(=O)O [Peptide 9019.0160]	–	–	959 nM	–	–	–	1530 nM	–
CSCC[C@H](NC(=O)[C@H](CCCNC(=N)N)NC(=O)[C@H](C)NC(=O)CN)C(=O)N1CCC[C@H]1C(=O)N[C@@H](CS)C(=O)N[C@@H](C)C(=O)N[C@@H](CCC(=O)O)C(=O)N[C@@H](CC(C)C)C(=O)N[C@H](C(=O)N[C@@H](CCCNC(=N)N)C(=O)N[C@@H](CCC(=O)O)C(=O)N1CCC[C@H]1C(=O)NCC(=O)N[C@@H](CS)C(=O)O)C(C)C [Peptide 9019.0181]	–	–	–	–	4700 nM	–	–	–
KELAVFREKVTEQHR [Peptide 9019.0186]	–	–	–	–	–	–	2040 nM	–
MRKIVATWMLWVCEE [Peptide 9019.0151]	–	249 nM	–	87 nM	281 nM	–	764 nM	7950 nM
